Reference: PubChem BioAssay AID504332 (National Center for Advancing Translational Sciences (NCATS), 2011)
Screen size: about 350,000 compounds; about 31,000 (8.9%) were called active. This list was built around the results that the source calls inconclusive (neither active nor inactive); the mix of calls is not that of the screen. The call rests on the fitted dose curve; in most records, active means well fitted inhibition curve with a large enough effect; inconclusive means small, poorly fitted or top-dose-only effect; inactive means no such curve, though single readings can be large or run the other way. A potency beside an inconclusive call is a rough fit, not a confirmed value.
Further: nearly all actives have a fitted effect of over 75% in size.
On the % scale 0 is the no-effect control and ±100 the full control effect; potency means the concentration at half of the fitted maximal effect; tags describe the fitted curve by direction and shape.

These compounds were tested against Histone-lysine N-methyltransferase EHMT2 (Homo sapiens) (UniProt Q96KQ7) (assay: qHTS Assay for Inhibitors of Histone Lysine Methyltransferase G9a). Settings: G9a H3K9 monomethylation, AlphaScreen, 2 h; activity, negative = inhibition: at 59 µM (top of the series) unless noted.
UniProt Q96KQ7, sequence (Q96KQ7 whole entry, looked up): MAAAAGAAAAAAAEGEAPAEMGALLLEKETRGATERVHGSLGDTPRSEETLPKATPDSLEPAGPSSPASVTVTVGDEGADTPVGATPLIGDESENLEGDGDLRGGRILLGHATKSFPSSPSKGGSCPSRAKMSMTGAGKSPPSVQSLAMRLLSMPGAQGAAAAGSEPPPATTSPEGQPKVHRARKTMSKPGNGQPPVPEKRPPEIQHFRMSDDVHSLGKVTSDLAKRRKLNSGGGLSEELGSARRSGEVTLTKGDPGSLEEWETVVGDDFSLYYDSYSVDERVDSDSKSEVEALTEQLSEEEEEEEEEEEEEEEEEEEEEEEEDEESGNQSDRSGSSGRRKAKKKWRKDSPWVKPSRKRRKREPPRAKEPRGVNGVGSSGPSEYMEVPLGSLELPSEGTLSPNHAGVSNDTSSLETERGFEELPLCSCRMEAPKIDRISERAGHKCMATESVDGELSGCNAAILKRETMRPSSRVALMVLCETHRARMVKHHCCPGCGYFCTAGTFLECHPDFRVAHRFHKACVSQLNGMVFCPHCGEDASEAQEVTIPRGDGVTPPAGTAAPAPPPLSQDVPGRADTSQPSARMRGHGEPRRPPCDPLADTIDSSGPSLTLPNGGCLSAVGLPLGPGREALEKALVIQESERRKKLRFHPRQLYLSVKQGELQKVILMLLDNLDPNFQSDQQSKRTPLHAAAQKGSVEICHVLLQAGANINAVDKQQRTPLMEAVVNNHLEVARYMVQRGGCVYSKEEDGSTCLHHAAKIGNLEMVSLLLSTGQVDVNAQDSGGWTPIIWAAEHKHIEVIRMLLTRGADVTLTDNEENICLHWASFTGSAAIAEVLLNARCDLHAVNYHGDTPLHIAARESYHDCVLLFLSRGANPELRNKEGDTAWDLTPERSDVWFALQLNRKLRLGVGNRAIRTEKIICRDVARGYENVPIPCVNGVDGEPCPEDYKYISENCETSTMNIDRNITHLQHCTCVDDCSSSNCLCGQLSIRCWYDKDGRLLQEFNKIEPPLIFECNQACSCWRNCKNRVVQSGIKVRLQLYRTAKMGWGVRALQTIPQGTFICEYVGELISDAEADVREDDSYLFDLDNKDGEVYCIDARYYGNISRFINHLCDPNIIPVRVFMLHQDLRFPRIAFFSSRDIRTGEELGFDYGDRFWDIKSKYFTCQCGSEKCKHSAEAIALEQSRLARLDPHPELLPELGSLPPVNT
Summary of the method: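 Readings reflect AlphaScreen signal from monomethyl-H3K9 antibody detection. HMT at 20 nM; substrate b-H3K9 500 nM; cofactor SAM 20 uM; 2 h RT reaction; compounds tested as titrations in qHTS with 15 min preincubation.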
In the case of NC(=O)CC[C@@H]1NC(=O)[C@@H]2CCCN2C(=O)c2cc([N+](=O)[O-])cc(I)c2NCCC[C@@H](C(=O)NC(CC(=O)O)C(N)=O)NC1=O (stereo partly drawn), the Potency is reported as inconclusive: 89.1 µM [inhibitor, single point]. Cc1cccnc1NC(=O)CCc1nnc2ccc(N3CCC4(CC3)OCCO4)nn12 was tested, and the “activity, negative = inhibition” value was inactive: 0.162% [at 102 µM]. For CSc1nnc(C)c(=O)n1COC(=O)c1ccc(S(=O)(=O)N2CCOCC2)cc1, the Potency was inconclusive: 70.8 µM [inhibitor, single point]. CSC1=NNC(c2ccc(C(C)(C)C)cc2)=NN1 was tested, and the Potency was inconclusive: 31.6 µM [inhibitor, partial curve, poor fit]. In the case of COc1ccc(-c2c3c(=O)n(C)c(=O)n(C)c3cn2-c2cccc(N)c2)cc1, the Potency is reported as active: 11.2 µM. In the case of O=C(CCS(=O)(=O)c1ccc(Br)cc1)N1CCN(c2ccccc2)CC1, the activity, negative = inhibition is reported as inconclusive: -57.2% [inhibitor]. With Cc1ccc(CNC(=O)C2CCN(C(=O)c3ccc(-n4ccc5ccccc54)s3)CC2)cc1 the “activity, negative = inhibition” value was inactive: 6.83%. With CCOc1ccc(C(=O)Nc2ccc(N3CCN(C)CC3)cc2)cc1Br the Potency was inconclusive: 39.8 µM [inhibitor, partial curve]. In the case of CCOc1ccc(S(=O)(=O)N/N=C2/CC(c3ccccc3)Oc3ccccc32)cc1 (stereo not drawn), the Potency is reported as active: 7.94 µM. c1ccc2c3c([nH]c2c1)[C@@H]1[C@H]2CC[C@H]([C@H]4CCCN[C@H]42)N1CC3 was tested, and the Potency was active: 10 µM. COc1cccc(CN2C(=O)N(c3ccc(C)cc3)C(=O)C2CC(=O)Nc2cc(OC)cc(OC)c2)c1 (stereo not drawn) was tested, and the Potency was inconclusive: 5.62 µM [inhibitor, partial curve, poor fit]. O=C(NCC12CC3CC(CC(C3)C1)C2)c1nn2c(c1Cl)NC(c1ccco1)CC2C(F)(F)F (stereo not drawn) was tested, and the Potency was inconclusive: 56.2 µM [inhibitor, partial curve, poor fit]. C[C@H]1CN(Cc2ccccc2)C(=O)[C@@H]1CC(=O)NCc1ccccc1 was tested, and the Potency was inconclusive: 79.4 µM [inhibitor, single point]. In the case of COCCN(Cc1cc2ccc(C)c(C)c2nc1Cl)C(=O)N1CCOCC1, the Potency is reported as inconclusive: 14.1 µM [inhibitor, single point]. CS(=O)(=O)N(CC(=O)NCc1ccccc1Cl)C1CCCCC1 was tested, and the “activity, negative = inhibition” value was inactive: -6.73% [at 102 µM]. For Cc1ccc(-n2nnc(-c3nsc(NC(=O)c4ccccc4C)n3)c2C)cc1Cl, the “activity, negative = inhibition” value was inactive: -3.57%. In the case of O=C(NCc1ccccn1)C(=O)NN=C1CCCCCCCCCCC1, the “activity, negative = inhibition” value is reported as inactive: 3.67% [at 102 µM]. With FC(F)(F)c1cccc(-n2cc(-c3ccccc3)[nH]c2=S)c1 the Potency was inconclusive: 17.8 µM [inhibitor, partial curve, poor fit].
